Source: PubChem BioAssay AID1347428 (National Center for Advancing Translational Sciences (NCATS), 2020)
Out of some 91,000 compounds screened, about 290 (0.32%) were called active. Inconclusive results, whose numbers are uncertain, are shown with a selection of clear calls. Calls come from the whole dose curve; as a rule, active = well fitted inhibition curve with a large enough effect; inconclusive = small, poorly fitted or top-dose-only effect; inactive = no such curve, though single readings can be large or run the other way. Where the call is inconclusive, the potency comes from a doubtful curve fit.

Target: Single-stranded DNA cytosine deaminase (Homo sapiens) (UniProt Q9GZX7)
Chain of UniProt Q9GZX7 (Q9GZX7 whole entry, looked up): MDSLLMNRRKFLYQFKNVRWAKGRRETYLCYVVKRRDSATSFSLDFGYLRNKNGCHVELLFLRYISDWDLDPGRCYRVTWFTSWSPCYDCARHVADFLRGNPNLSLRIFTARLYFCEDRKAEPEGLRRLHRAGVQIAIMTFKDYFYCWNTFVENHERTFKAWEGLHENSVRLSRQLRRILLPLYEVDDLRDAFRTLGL
Assay: Primary qHTS assay for inhibitors of Activation Induced Cytidine Deaminase (AID): AID signal; note: nearly all actives have a fitted effect of over 25% in size
Settings: AID deamination FRET fluorescence, UDG-coupled, 4 h; series mostly up to 115 µM
Text: Assay Provider (PI) Patricia Gearhart Ph.D.
National Institute on Aging
National Institute of Health (NIH), Bethesda, MD
Assay Provider (PI) Rahul Kohli Ph.D.
Perelman School of Medicine
University of Pennsylvania, Philadelphia, PA
Activation-Induced Deaminase (AID) is a cytosine deaminase which converts cytosine into uracil within stretches of ssDNA. The presence of uracil in DNA initiates a cascade of mutagenic DNA repair to introduce point mutations and DNA double strand breaks. Specific targeting of AID to the immunoglobulin heavy chain loci (Igh) promotes mutagenesis in the antibody variable region for somatic hypermutation (SHM) or switch regions leading to class switch recombination (CSR). However, AID also plays a role in accumulating unnecessary mutations across the genome. Mis-targeting of AID results in the initiation of tumor development and leads to greater drug resistance among cancer cells when continually expressed. To identify an AID inhibitor, a small molecule library will be screened in collaboration with NCATS core facility at NIH. To confirm biological function, inhibitors will be examined in an in vitro murine B-cell activation assay and subsequent secondary validation screens. Top molecules will be further screened to identify inhibitory efficacy against a wild type primary splenocytes assay. Using these approaches, we hope to identify a small molecule with great efficacy and low toxicity for use as a molecular probe to further characterize AID's intricacies, or even as a therapeutic.
A FRET based analysis of cytosine deamination, was developed to identify potential inhibitors of AID catalytic activity. This screen has two signal output, Read 1 evaluates the AID inhibition response. The second readout (Read 2) evaluates UDG response and is uses as a counterscreen to exclude false positive inhibitors. Inhibition in AID and inactivity in the UDG signal is the desired outcome for this assay.
SEQUENCE No. (e.g., 1, 2, 3, etc.); […] (e.g., Cells, Incubation, Reagent, etc.); VALUE; DESCRIPTION
1a; Reagent; 3 uL; [4/3x] 1 uM AID/2.67 U/mL UDG
1b; Reagent; 3 uL; 2 U/mL UDG
1c; Reagent; 3 uL; 1 uM AID
2a; Compound; 46 nL; Follow-up plates (0.64 uM - 10 mM)
2b; Control; 46 nL; ATA ([…] - 10 mM)
3; Time; 10 min; incubation at room temperature
5; Time; 4 hr; incubation at room temperature
6; Reagent; 4 uL; [2x] 250 mM NaOH
7; Time; 15 sec; centrifuge at 1000 rpm
8; Time; 30 min; incubation at room temperature
9a; Detection; fluorescence (Read 1: AID); EnVision (PerkinElmer) plate reader, 540 excitation and 590 emission filters
9b; Detection; fluorescence (Read 2: UDG); EnVision (PerkinElmer) plate reader, 560 excitation and 665 emission filters
NOTES (numbers refer to sequence above)
1a; Reagents were dispensed in a medium-binding black solid-bottom Greiner plates (789176F) using a BioRptr liquid dispenser. Dispense 3 uL of [4/3x] 1 uM AID (provided by Kohli lab) and [4/3x] 2 U/mL UDG (NEB M0280L) into columns 1, 2, 5 to 48.
1b; Dispense 3 uL of [4/3x] 2 U/mL UDG into column 3.
1c; Dispense 3 uL of [4/3x] 1 uM AID into column 4.
2a; Compound (7-points [uM] (0.64; 3.2; 16; 80; 400; 2,000; 10,000; 20,000) double pin-transferred (Dip Factor = 2) using the Kalypsys (Wako USA) pintool equipped with a 1536 pinhead for a final concentration range of 7.32 nM - 114 uM.
2b; 10 mM Aurintricarboxylic Acid (Sigma A1895) (ATA, 8-point, n = 2, 1:2.5 dilution in column 2) double pin-transferred (Dip Factor = 2) using the Kalypsys (Wako USA) pintool equipped with a 1536 pinhead for a [final] range of 186 nM - 114 uM.
3; Room temperature incubation.
4; Dispense 1 uL of substrate mixture from the Kohli lab [4x] […] DJC20 and [4x] 250 nM DJC23 into columns 1 to 48 .
5; Room temperature incubation.
6; Dispense 4 uL of substrate mixture [2x] 250 mM NaOH into columns 1 to 48.
7; Centrifugation step to remove bubbles.
8; Room temperature incubation
9a; Fluorescence signal (column label AID) was read using the EnVision plate reader. […]
Potency is the fitted concentration of half-maximal effect; tags give direction and shape of the fitted curve.

Row | SMILES | Potency
1 | Cc1nn(-c2ccccc2)c(OC(=O)C(C)C)c1Sc1ccc(Cl)cc1 | inconclusive: 89.1 µM [inhibitor, single point]
2 | Cc1ccc(C)c(CN2C(=O)c3ccccc3S(=O)(=O)c3ccc(C(=O)N(C)C4CCCCC4)cc32)c1 | inconclusive: 39.8 µM [inhibitor, full curve]
3 | CCn1nc(C(=O)Nc2nc3ccccc3[nH]2)c2ccccc2c1=O | inactive
4 | COc1ccccc1/C=C/c1nc2ccccc2n1C(C)C | inconclusive: 35.5 µM [inhibitor, partial curve, poor fit]
5 | Cc1ccc(/C=C/c2onc(C)c2S(=O)(=O)N2CCC(C(=O)N3CCC(N(C)C(C)C)CC3)CC2)cc1 | active: 44.7 µM
6 | Cc1ccc(-n2c(Cc3ccccc3)nnc2SCc2nc(-c3cccs3)no2)cc1 | inconclusive: 44.7 µM [inhibitor, partial curve, poor fit]
7 | Cc1ccc(CN2CCSc3ccc(C(=O)N4CCN(c5ccccc5)CC4)cc32)cc1 | inconclusive: 7.08 µM [inhibitor, partial curve, poor fit]
8 | COC(=O)CNc1ccccc1C(=O)NCC(F)(F)F | inactive
9 | CCN(c1cccc(C)c1)S(=O)(=O)c1ccc2[nH]cc(C(=O)NCCCOC)c(=O)c2c1 | inconclusive: 89.1 µM [inhibitor, single point]
10 | CCCCCCCOc1ccc(-c2ccc(C3CCC(CC)CC3)cn2)cc1F (stereo unspecified) | inactive
11 | CCC(=O)Nc1ccc(C)cc1-c1nnc(SCC(=O)Nc2ccc(Cl)c(Cl)c2)[nH]c1=O | inconclusive: 79.4 µM [inhibitor, partial curve, poor fit]
12 | CCC1CN(C(=O)N2CCC(C(=O)NCc3cccc(C)c3)CC2)c2ccccc2O1 (stereo unspecified) | inconclusive: 89.1 µM [inhibitor, single point]
13 | O=C(c1ccc2c(c1)N(Cc1ccc(F)cc1)C(=O)c1ccccc1S2=O)N1CCC(Cc2ccccc2)CC1 (stereo unspecified) | inconclusive: 56.2 µM [inhibitor, partial curve, poor fit]
14 | CCCOc1ccc(C(=O)N(Cc2ccc(C(C)C)cc2)C2CCS(=O)(=O)C2)cc1 (stereo unspecified) | inconclusive: 39.8 µM [inhibitor, partial curve, poor fit]
15 | Cc1ccc(C)c(NC(=O)CSc2ncc(S(=O)(=O)c3ccc(C)c(Cl)c3)c(=O)[nH]2)c1 | inconclusive: 11.2 µM [inhibitor, full curve]
16 | CCC(C(=O)NCCc1ccc(SC)cc1)n1nc(C)c2sc3ccccc3c2c1=O (stereo unspecified) | inconclusive: 44.7 µM [inhibitor, full curve, poor fit]
17 | COc1ccc(N2CCN(C(=O)c3cn(CC(C)C)c(=O)c4c3c3ccccc3n4C)CC2)cc1 | inconclusive: 25.1 µM [inhibitor, full curve, poor fit]
18 | O=C(Cn1ncc2c1-c1ccccc1OC2)N1CCN(c2ccccc2F)CC1 | inconclusive: 89.1 µM [inhibitor, single point]
19 | O=C(CSCc1ccccc1Cl)N1CCN(c2ccc(F)cc2)CC1 | inconclusive: 35.5 µM [inhibitor, partial curve, poor fit]
20 | Cc1cc2ncn(CCCCOc3ccccc3)c2cc1C | inconclusive: 79.4 µM [inhibitor, partial curve]
21 | COc1ccc(CNC(=O)c2cnc3sc(N4CCCC4)nn3c2=O)cc1OC | inactive

Row | SMILES | Potency
22 | O=C(CSc1c2c(nc3ccc(Cl)cc13)CCCC2)N1CCN(c2cccc(Cl)c2)CC1 | inconclusive: 44.7 µM [inhibitor, partial curve, poor fit]
23 | Cc1ccc2c(c1)C(c1ccc(F)cc1)N(C(=O)COc1ccc(Cl)cc1Cl)CC(=O)N2 (stereo unspecified) | inconclusive: 39.8 µM [inhibitor, full curve, poor fit]
24 | CCN(CCCNC(=O)c1cc2c(=O)n(C)c3ccccc3c2s1)Cc1ccccc1 | inconclusive: 35.5 µM [inhibitor, full curve, poor fit]
25 | O=C(NCCc1c[nH]c2ccccc12)c1ccccn1 | inactive
26 | COCCCNC(=O)c1oc2c(c1C)-c1nn(Cc3cccc(Cl)c3)cc1CC2 | active: 89.1 µM
27 | O=C(NCCc1ccccc1)c1cnc2sc(N3CCCC3)nn2c1=O | inconclusive: 89.1 µM [inhibitor, partial curve, poor fit]
28 | COc1cc(OC)c(NC(=O)C2CCCN(c3ncnc4c3nc3n4CCCCC3)C2)cc1Cl (stereo unspecified) | inconclusive: 39.8 µM [inhibitor, single point]
29 | Cc1ccccc1-c1nc(CS(=O)(=O)CC(=O)NCC(C)c2ccccc2)c(C)o1 (stereo unspecified) | inconclusive: 50.1 µM [inhibitor, partial curve, poor fit]
30 | CC(C)Cn1c(=O)c2ccccc2n2c(CCC(=O)N3CCN(c4ccccc4)CC3)nnc12 | inconclusive: 44.7 µM [inhibitor, partial curve, poor fit]
31 | O=C(c1ccc(Cl)cc1Cl)N(C1CCCCC1)C1CCCCC1 | inactive
32 | O=C(NCc1ccc(F)cc1)c1cnc(N2CCCCC2)c2ccccc12 | inconclusive: 50.1 µM [inhibitor, partial curve]
33 | COc1cc(OC)cc(C(=O)Nc2ccc3nc(Nc4cccc(C(F)(F)F)c4)cc(C)c3c2)c1 | inconclusive: 22.4 µM [inhibitor, full curve, poor fit]
34 | CCC1CN(C(=O)Nc2ccc(Br)cc2F)c2ccccc2S1 (stereo unspecified) | inconclusive: 39.8 µM [inhibitor, partial curve, poor fit]
35 | Cc1[nH]c2ccccc2c1C1(O)C(=O)N(Cc2ccccc2Cl)c2ccccc21 (stereo unspecified) | inconclusive: 79.4 µM [inhibitor, partial curve, poor fit]
36 | Cn1nc(CC(=O)Nc2ccc(S(=O)(=O)N3CCCCCC3)cc2)c2ccccc2c1=O | inactive
37 | CCN(Cc1ccccc1)C(=O)c1nn(-c2ccc(OC)cc2)c(=O)c2c1c1ccccc1n2C | inconclusive: 31.6 µM [inhibitor, partial curve, poor fit]
38 | N#Cc1c(SCC(=O)N2CCCC2)nc(N2CCCCC2)c2c1CCCC2 | inconclusive: 50.1 µM [inhibitor, partial curve, poor fit]
39 | CCOc1ccc(CCNC(=O)c2sc3ncccc3c2-n2cccc2)cc1OCC | inconclusive: 11.2 µM [inhibitor, full curve, poor fit]
40 | CCOc1ccc(OCC)c(NC(=O)c2ccc(-c3ccccc3)s2)c1 | inconclusive: 28.2 µM [inhibitor, single point]
41 | Cc1nc2nc(SCC(=O)NC3CCC(C)CC3)nn2c(C)c1Cc1ccccc1 (stereo unspecified) | inconclusive: 3.16 µM [inhibitor, full curve, poor fit]
42 | O=C(CCC1N=C2c3ccccc3N=C(SCc3cccc(F)c3)N2C1=O)NCc1cccs1 (stereo unspecified) | inconclusive: 20 µM [inhibitor, partial curve, poor fit]

Row | SMILES | Potency
43 | CCN(C)Cc1cccc(CNC(=O)NC2CC2)c1 | inactive
44 | COc1ccc(-c2nnc(SCC(=O)NC3CCCC3)nc2-c2ccc(OC)c(OC)c2)cc1OC | inconclusive: 25.1 µM [inhibitor, full curve, poor fit]
45 | Cc1ccc(-c2cn(-c3cccc(Cl)c3)c(S(=O)(=O)CC(=O)Nc3cccc(C)c3)n2)cc1 | inconclusive: 20 µM [inhibitor, full curve]
46 | CCn1cc(C(=O)NCCCN2CCCC(C)C2)c(=O)c2cc(S(=O)(=O)N(C)C3CCCCC3)ccc21 (stereo unspecified) | inconclusive: 50.1 µM [inhibitor, partial curve, poor fit]
47 | Cc1ccc(OCC(=O)NC2=NCCS2)cc1C | inactive
48 | COc1ccc(OC)c(CNC(=O)c2nn(C)c3c2CSc2ccccc2-3)c1 | inconclusive: 39.8 µM [inhibitor, partial curve, poor fit]
49 | Cc1ccc(C2c3c(-c4cc(C)cc(C)c4O)n[nH]c3C(=O)N2CCCO)cc1 (stereo unspecified) | inactive
50 | Cc1cccc(N2CCN(C(=O)c3ccc4c(c3)N(Cc3cccc(Cl)c3)C(=O)c3ccccc3S4=O)CC2C)c1 (stereo unspecified) | inconclusive: 7.94 µM [inhibitor, full curve, poor fit]
51 | CCCn1cc(S(=O)(=O)c2ccc(CC)cc2)c(=O)c2cc(F)c(N(CC)CC)cc21 | inconclusive: 14.1 µM [inhibitor, full curve, poor fit]
52 | N#Cc1cc2ccccc2nc1N1CCCCC1 | inactive
53 | OC(c1nc2ccccc2s1)(c1nc2ccccc2s1)C(F)(F)F | inactive
54 | Cc1cccc(NC(=O)c2oc3c(c2C)-c2[nH]ncc2CC3)c1C | inconclusive: 39.8 µM [inhibitor, full curve, poor fit]
55 | Cc1ccc(CN(C)Cc2ccccc2)o1 | inactive
56 | COc1ccc(N2CCN(C(=O)CCc3c(C)nc4c(-c5ccccc5)c(C)nn4c3C)CC2)cc1 | inconclusive: 89.1 µM [inhibitor, single point]
57 | CCCOc1ccc(-c2nc3ccccc3c(=O)o2)cc1 | inconclusive: 17.8 µM [inhibitor, full curve, poor fit]
58 | Cc1cccc(NC(=O)C2CCN(S(=O)(=O)c3cccc4nsnc34)CC2)c1 | inconclusive: 89.1 µM [inhibitor, single point]
59 | O=C(CSc1nccn1-c1cccc(Cl)c1)Nc1cccc(C(F)(F)F)c1 | active: 31.6 µM
60 | CC1CCN(S(=O)(=O)c2cn(CC(=O)Nc3ccc(F)c(Cl)c3)c(=O)c3ccccc23)CC1 | inconclusive: 17.8 µM [inhibitor, full curve, poor fit]
61 | Cc1cccc(-n2cc(-c3ccccc3)c3c(NC(C)C)ncnc32)c1 | inconclusive: 25.1 µM [inhibitor, full curve, poor fit]
